Laboratory results reported in patent US20250179210A1, “ANTI-CEACAM5 ANTIBODIES AND CONJUGATES AND USES THEREOF” (Merck Patent GmbH, priority 2022, published 2025).

Legend:
[1] = tested on: human patient-derived gastric xenograft model GAPF313; assay: Gastric PDX mouse model GAPF313; type: in vivo
Description: (§1) Anti-tumor efficacy in vivo was evaluated in the human patient-derived gastric xenograft model GAPF313 (Shanghai LideBiotech CO., LTD). Tumor fragments were transplanted subcutaneously into the right flank of six to eight weeks old immunodeficient female mice (NU-Foxn1nu, Charles River). […] Tumor length (L) and width (W) were measured with calipers and tumor volumes were calculated using the formula L×(W^2)/2.
Anti-tumor efficacy of ADC1-M and ADC3-M in comparison to ADC SAR DM4 has been evaluated in the human GC xenograft model GAPF313. The study was performed at Lide Biotech (Shanghai). Six to eight weeks old immunodeficient female mice (Crl: NU-Foxn1nu) were transplanted subcutaneously in the right flank with GAPF313 tumor fragments. When tumors reached a mean volume of 176 mm^3 6 mice/group were treated intravenously every other week (3 cycles) with vehicle (saline solution) or with 4 mg/kg ADC1-M or ADC3-M or 4.7 mg/kg ADC SAR DM4. Tumor length (L) and width (W) were measured with calipers and tumor volumes were calculated using L×W^2/2.

[2] = tested on: human patient-derived CRC xenograft model COPF230; assay: CRC PDX mouse model COPF230; type: in vivo; settings: for efficacy compared to ADC SAR DM4 in CRC PDX models (expected): COPF230 and REPF210
Description: as §1, with “CRC” for “gastric”, “models COPF230 and REPF210” for “model GAPF313”
Anti-tumor efficacy of ADC1-M and ADC3-M in comparison to ADC SAR DM4 was in the human CRC xenograft model COPF230. The study was performed at Lide Biotech (Shanghai). Six to eight weeks old immunodeficient female mice (Crl: NU-Foxn1nu) were transplanted subcutaneously in the right flank with COPF230 tumor fragments. When tumors reached a mean volume of 165 mm^3 6 mice/group were treated once intravenously with vehicle (saline solution) or with ADC1-M, ADC3-M or ADC SAR DM4 (each 6 mg/kg). Tumor length (L) and width (W) were measured with calipers and tumor volumes were calculated using L×W^2/2.

[3] = tested on: CEACAM5-negative MDA-MB-231 cells in co-culture with CEACAM5-positive SK-CO-1 cells; assay: Bystander assay; type: cell-based, human; settings: for non-specific effect on MDA-MB-231 cells alone (only controls) / bystander effect against CEACAM5-negative MDA-MB-231 cells in the presence of CEACAM5-positive SK-CO-1: ADC concentration of 1 nM; for bystander effect against CEACAM5-negative MDA-MB-231 cells in the presence of CEACAM5-positive SK-CO-1: six days; for bystander effect compared to ADC SAR DM4: co-culture, 1 nM
Description: Cytotoxicity effects of ADCs on antigen-negative cancer cell lines in co-culture with antigen-positive cancer cell lines were measured by bystander assays. One thousand CEACAM5-negative MDA-MB-231 cells were seeded in co-culture experiments with 750 or 3000 CEACAM5-positive SK-CO-1 cells per well. As a control, 1000 MDA-MB-231 cells only were seeded in parallel. Cells were seeded in a total volume of 90 μL in 96-well plates the day before treatment. Test compounds were formulated at 10-fold the final concentration of 1E-9 M in cell culture medium and 10 μL was added to the cells in duplicates. Plates were cultured at 37° C. in a CO2 incubator for six days.
Prior to immunofluorescence staining, medium was removed and cells were treated with 100% methanol (−20° C.) for 30 minutes. After methanol removal and one PBS wash step, cells were treated with 2.5% paraformaldehyde (PFA) with 0.2% Triton X-100 in PBS for 15 minutes at room temperature. After solution removal and one PBS wash step, cells were treated with 1% BSA/0.1% Tween/0.1% sodium azide in PBS for at least one hour at room temperature. Antigen-positive and antigen-negative cells were discriminated by immunofluorescence staining with 10 μg/mL human anti-CEACAM5 (mAb1) primary antibody and 1:2000 dilution of donkey anti-human IgG fluorescently (phycoerythrin) labeled secondary antibody (Jackson ImmunoResearch #709-116-149). Cells were identified by nuclei staining using 1 μg/mL Hoechst 33342 (Life technologies, cat #H3570) dye. Staining was carried out in 1% BSA/0.1% sodium azide PBS solutions for 30 minutes at room temperature. Secondary antibody staining was combined with Hoechst dye staining. Between and after staining steps, cells were washed thrice with PBS.
Plates were imaged with the confocal quantitative image cytometer CQ1 (Yokogawa® Electric Corporation, Tokyo, Japan). Analysis was adapted from the CQ1 software (Yokogawa) template “Nucleus and pseudo-Cell body” and FCS export files were analyzed using FlowJo (BD). Based on staining or absence of staining with fluorescently labeled antibody around the nucleus, antigen-positive and antigen-negative cells were distinguished and quantified. Bar graphs show the number of identified antigen-positive and antigen-negative cells per treatment condition.

[4] = tested on: human pancreatic cell line derived xenograft model HPAF-II; assay: Pancreatic cell line derived xenograft model HPAF-II; type: in vivo, mouse; settings: for anti-tumor effect: single i.v. treatment
Description: 5×10^6 HPAF-II cells were injected subcutaneously into the right flank of six to eight weeks old immunodeficient female mice (Hsd:Athymic Nude-Foxn1nu, Envigo). […] Tumor length (L) and width (W) were measured with calipers and tumor volumes were calculated using L×(W^2)/2.
Efficacy of ADC1-M and ADC3-M in comparison to ADC8 was evaluated in the human pancreatic adenocarcinoma, cell line-derived xenograft model HPAF-II (ATCC, CRL-1997). Six to eight weeks old immunodeficient female mice (Hsd:Athymic Nude-Foxn1nu, Envigo) were injected subcutaneously in the right flank with 5×10^6 HPAF-II cells. When tumors reached a mean volume of 150 mm^3, 10 mice/group were treated once intravenously with ADC1-M (1 mg/kg or 6 mg/kg) or with ADC3-M (1 mg/kg or 6 mg/kg) or with ADC8 (1 mg/kg or 6 mg/kg). Tumor length (L) and width (W) were measured with calipers and tumor volumes were calculated using L×W^2/2.

[5] = Pharmacokinetic study in human FcRn transgenic mice; settings: 3 mg/kg i.v., HuFcRn mice; for C0: back extrapolation; for %_Ext: extrapolated part of AUCinf; for t1/2: total antibody

B1: ADC3-M (conjugate)
heavy: EVQLQESGPGLVKPSQTLSLTCTVSDGSVSRGGYYLTWIRQHPGKGLEWIGYIYYSGSTYFNPSLRSRVTMSVDTSKNQFSLKLSSVTAADTAVYYCARGIAVAPFDYWGQGTLVTVSSASTKGPSVFPLAPSSKSTSGGTAALGCLVKDYFPEPVTVSWNSGALTSGVHTFPAVLQSSGLYSLSSVVTVPSSSLGTQTYICNVNHKPSNTKVDKRVEPKSCDRTHTCPPCPAPEAAGGPSVFLFPPKPKDTLYITREPEVTCVVVDVSHEDPEVKFNWYVDGVEVHNAKTKPREEQYNSTYRVVSVLTVLHQDWLNGKEYKCKVSNKALPAPIEKTISKAKGQPREPQVYTLPPSREEMTKNQVSLTCLVKGFYPSDIAVEWESNGQPENNYKTTPPVLDSDGSFFLYSKLTVDKSRWQQGNVFSCSVMHEALHNHYTQKSLSLSPG
light: EIVLTQSPATLSVSPGERATLSCRTSQSVRSNLAWYQQKPGQAPRLLIYAASTRATGIPARFSGSGSGTEFTLTISSLQSEDFAVYYCQQYTNWPFTFGPGTKVDIKRTVAAPSVFIFPPSDEQLKSGTASVVCLLNNFYPREAKVQWKVDNALQSGNSQESVTEQDSKDSTYSLSSTLTLSKADYEKHKVYACEVTHQGLSSPVTKSFNRGECGGTLQSPP
modifications: GGG-glucuronide-exatecan conjugate, DAR 4
- efficacy compared to ADC SAR DM4 (expected) [1]: compare similarly favorably to ADC SAR DM4
- anti-tumor effect ([1]; i.v. every other week (3 cycles), 4 mg/kg ADC1-M or ADC3-M, 4.7 mg/kg ADC SAR DM4): comparable and significant anti-tumor effect
- efficacy compared to ADC SAR DM4 in CRC PDX models (expected) [2]: compare similarly favorably to ADC SAR DM4
- anti-tumor effect ([2]; single i.v. treatment, 6 mg/kg): comparable and significant anti-tumor effect
- bystander effect compared to ADC SAR (expected) [3]: more potent bystander effects than ADC SAR
- efficacy compared to ADC3 (expected) [4]: compare similarly favorably to ADC3
- anti-tumor effect ([4]; 1 mg/kg): minor and temporary anti-tumor effect
- anti-tumor effect ([4]; 6 mg/kg): much stronger anti-tumor effect

B2: ADC6-M (conjugate)
heavy: EVQLQESGPGLVKPSQTLSLTCTVSDGSVSRGGYYLTWIRQHPGKGLEWIGYIYYSGSTYFNPSLRSRVTMSVDTSKNQFSLKLSSVTAADTAVYYCARGIAVAPFDYWGQGTLVTVSSASTKGPSVFPLAPSSKSTSGGTAALGCLVKDYFPEPVTVSWNSGALTSGVHTFPAVLQSSGLYSLSSVVTVPSSSLGTQTYICNVNHKPSNTKVDKRV[letters of human IgG1 Fc with changes left out]
light: EIVLTQSPATLSVSPGERATLSCRTSQSVRSNLAWYQQKPGQAPRLLIYAASTRATGIPARFSGSGSGTEFTLTISSLQSEDFAVYYCQQYTNWPFTFGPGTKVDIKRTVAAPSVFIFPPSDEQLKSGTASVVCLLNNFYPREAKVQWKVDNALQSGNSQESVTEQDSKDSTYSLSSTLTLSKADYEKHKVYACEVTHQGLSSPVTKSFNRGEC
- efficacy compared to ADC SAR DM4 (expected) [1]: compare similarly favorably to ADC SAR DM4
- AUCinf [5]: 2850 µg·h/mL
- AUClast [5]: 2850 µg·h/mL
- Cl [5]: 25.2 mL/day/kg
- Tlast [5]: 336 h
- Vss [5]: 0.0498 L/kg
- Vz [5]: 0.0513 L/kg
- C0 [5]: 84.1 µg/mL
- %_Ext [5]: 0.1%
- t1/2 [5]: 33.8 h
- efficacy compared to ADC SAR DM4 in CRC PDX models (expected) [2]: compare similarly favorably to ADC SAR DM4
- non-specific effect on MDA-MB-231 cells alone (only controls) [3]: no non-specific effect
- bystander effect against CEACAM5-negative MDA-MB-231 cells in the presence of CEACAM5-positive SK-CO-1 [3]: potent bystander effect
- bystander effect compared to ADC SAR DM4 [3]: much more potent bystander effect
- bystander effect compared to ADC SAR (expected) [3]: more potent bystander effects than ADC SAR
- efficacy compared to ADC3 (expected) [4]: compare similarly favorably to ADC3

B3: ADC7-M (conjugate)
heavy: EVQLQESGPGLVKPSQTLSLTCTVSDGSVSRGGYYLTWIRQHPGKGLEWIGYIYYSGSTYFNPSLRSRVTMSVDTSKNQFSLKLSSVTAADTAVYYCARGIAVAPFDYWGQGTLVTVSSASTKGPSVFPLAPSSKSTSGGTAALGCLVKDYFPEPVTVSWNSGALTSGVHTFPAVLQSSGLYSLSSVVTVPSSSLGTQTYICNVNHKPSNTKVDKRV[letters of human IgG1 Fc with changes left out]
light: EIVLTQSPATLSVSPGERATLSCRTSQSVRSNLAWYQQKPGQAPRLLIYAASTRATGIPARFSGSGSGTEFTLTISSLQSEDFAVYYCQQYTNWPFTFGPGTKVDIKRTVAAPSVFIFPPSDEQLKSGTASVVCLLNNFYPREAKVQWKVDNALQSGNSQESVTEQDSKDSTYSLSSTLTLSKADYEKHKVYACEVTHQGLSSPVTKSFNRGECGGTLQSPP
- efficacy compared to ADC SAR DM4 (expected) [1]: compare similarly favorably to ADC SAR DM4
- AUCinf [5]: 6140 µg·h/mL
- AUClast [5]: 5720 µg·h/mL
- Cl [5]: 11.7 mL/day/kg
- Tlast [5]: 504 h
- Vss [5]: 0.0934 L/kg
- Vz [5]: 0.086 L/kg
- C0 [5]: 55.8 µg/mL
- %_Ext [5]: 6.9%
- t1/2 [5]: 122 h
- efficacy compared to ADC SAR DM4 in CRC PDX models (expected) [2]: compare similarly favorably to ADC SAR DM4
- non-specific effect on MDA-MB-231 cells alone (only controls) [3]: no non-specific effect
- bystander effect against CEACAM5-negative MDA-MB-231 cells in the presence of CEACAM5-positive SK-CO-1 [3]: potent bystander effect
- bystander effect compared to ADC SAR DM4 [3]: much more potent bystander effect
- bystander effect compared to ADC SAR (expected) [3]: more potent bystander effects than ADC SAR
- efficacy compared to ADC3 (expected) [4]: compare similarly favorably to ADC3
